Reference: US5760092A, “Allocolchinones and uses thereof” (Brandeis University, priority 1996, dated 1998)
Several values for one entry are separate records, joined by “and”; a condition that tells them apart may be missing. Equal values may be shown once. Read-outs that look alike come from different tables or passages of the source.

Experiments:
[1] = test system: NCI-H23 non-small cell lung cancer cells
[2] = test system: MDA-MB-231/ATCC breast cancer cells; settings: log10 conc -6.0; 1 µM
[3] = test system: OVCAR-5 ovarian cancer cells
TK-10 renal cancer cells [4] = assay: cells; settings: Homo sapiens
[5] = test system: SW-620 colon cancer cells; settings: log10 conc -8.0; 0.01 µM
[6] = test system: EKVX non-small cell lung cancer cells; assay: cells; settings: Homo sapiens
[7] = test system: PC-3 prostate cancer cells; assay: cells
[8] = test system: A549/ATCC non-small cell lung cancer cells; settings: log10 conc -6.0; 1 µM
TK-10 renal cancer cells [9] = test system: TK-10 renal cancer cells
UACC-257 melanoma cells = assay: cells; settings: Homo sapiens
[10] = test system: HCT-15 colon cancer cells; assay: cells; settings: Homo sapiens
K-562 leukemia cells = assay: cells; settings: Homo sapiens
[11] = test system: DU-145 prostate cancer cells; assay: cells; settings: Homo sapiens
RPMI-8226 leukemia cells = settings: log10 conc -7.0; 0.1 µM
[12] = test system: IGR-OV1 ovarian cancer cells; assay: cells; settings: Homo sapiens
[13] = test system: OVCAR-4 ovarian cancer cells
[14] = test system: A549/ATCC non-small cell lung cancer cells; assay: cells; settings: Homo sapiens
[15] = test system: HCC-2998 colon cancer cells; assay: cells; settings: Homo sapiens
[16] = test system: OVCAR-4 ovarian cancer cells; assay: cells; settings: Homo sapiens
[17] = test system: MDA-N breast cancer cells
UO-31 renal cancer cells = assay: cells; settings: Homo sapiens
SN12C renal cancer cells = settings: log10 conc -8.0; 0.01 µM
[18] = read-out: Percent Growth, log10 conc -4.0
[19] = read-out: Percent Growth, log10 conc -5.0
[20] = read-out: Percent Growth, log10 conc -6.0
[21] = read-out: Percent Growth, log10 conc -9.0
[22] = read-out: Percent Growth, log10 conc -10.0

For `COc1cc2c(c(OC)c1OC)-c1ccc(C(C)=O)cc1C(NC(C)=O)CC2` (stereo not drawn), the “Percent Growth” value ([1]; log10 conc -6.0, 1 µM) was 25%, the “Percent Growth” value ([1]; log10 conc -7.0, 0.1 µM) was 29% and the “Percent Growth” value ([1]; log10 conc -8.0, 0.01 µM) was 36%. The “Percent Growth” value [2] was -6%, the “Percent Growth” value ([3]; log10 conc -7.0, 0.1 µM) was 43% and 22% and the “Percent Growth” value ([3]; log10 conc -8.0, 0.01 µM) was 31%. The activity at 100 µM (TK-10 renal cancer cells [4]; TK-10, read-out: Percent Growth, log10 conc -4.0) was 82%, the activity at 10 µM (TK-10 renal cancer cells [4]; TK-10, read-out: Percent Growth, log10 conc -5.0) was 91% and the activity at 0.1 µM (TK-10 renal cancer cells [4]; TK-10, read-out: Percent Growth, log10 conc -7.0) was 65%. For the same compound, the activity at 0.001 µM (TK-10 renal cancer cells [4]; TK-10, read-out: Percent Growth, log10 conc -9.0) was 65%, the activity at 0.0001 µM (TK-10 renal cancer cells [4]; TK-10, read-out: Percent Growth, log10 conc -10.0) was 98% and the “Percent Growth” value [5] was 26%. For the same compound, the “Percent Growth” value (KM12 colon cancer cells; log10 conc -6.0, 1 µM) was 7%, the “Percent Growth” value (KM12 colon cancer cells; log10 conc -7.0, 0.1 µM) was 7% and the activity at 100 µM [6, 18] was 43%. It also gave an activity at 10 µM [6, 19] of 50%, an activity at 1 µM [6, 20] of 37% and an activity at 0.001 µM [6, 21] of 44%. It also gave an activity at 0.0001 µM [6, 22] of 103%, an activity at 100 µM [7, 18] of 26% and an activity at 10 µM [7, 19] of 26%. The activity at 1 µM [7, 20] was 22%, the activity at 0.1 µM ([7]; read-out: Percent Growth, log10 conc -7.0) was 25% and the activity at 0.01 µM ([7]; read-out: Percent Growth, log10 conc -8.0) was 27%. For the same compound, the activity at 0.001 µM [7, 21] was 33%, the activity at 0.0001 µM [7, 22] was 97% and the “Percent Growth” value [8] was 28%. The “Percent Growth” value (M14 melanoma cells; log10 conc -6.0, 1 µM) was 22%, the “Percent Growth” value (M14 melanoma cells; log10 conc -7.0, 0.1 µM) was 6% and 16% and the “Percent Growth” value (M14 melanoma cells; log10 conc -8.0, 0.01 µM) was 15%. The “Percent Growth” value (UACC-62 melanoma cells; log10 conc -6.0, 1 µM) was 32%, the “Percent Growth” value (UACC-62 melanoma cells; log10 conc -8.0, 0.01 µM) was 32% and the “Percent Growth” value (TK-10 renal cancer cells [9]; log10 conc -7.0, 0.1 µM) was 55%. The “Percent Growth” value (TK-10 renal cancer cells [9]; log10 conc -8.0, 0.01 µM) was 44%, the activity at 100 µM (UACC-257 melanoma cells; UACC-257, read-out: Percent Growth, log10 conc -4.0) was 25% and the activity at 10 µM (UACC-257 melanoma cells; UACC-257, read-out: Percent Growth, log10 conc -5.0) was 37%. For the same compound, the activity at 0.001 µM (UACC-257 melanoma cells; UACC-257, read-out: Percent Growth, log10 conc -9.0) was 69%, the activity at 0.0001 µM (UACC-257 melanoma cells; UACC-257, read-out: Percent Growth, log10 conc -10.0) was 88% and the activity at 100 µM ([10]; HCT-15, read-out: Percent Growth, log10 conc -4.0) was 6%. The activity at 10 µM ([10]; HCT-15, read-out: Percent Growth, log10 conc -5.0) was 6%, the activity at 0.01 µM ([10]; HCT-15, read-out: Percent Growth, log10 conc -8.0) was 31% and the activity at 0.001 µM ([10]; HCT-15, read-out: Percent Growth, log10 conc -9.0) was 70%. For the same compound, the activity at 0.0001 µM ([10]; HCT-15, read-out: Percent Growth, log10 conc -10.0) was 93%, the activity at 100 µM (K-562 leukemia cells; K562, read-out: Percent Growth, log10 conc -4.0) was 1% and the activity at 10 µM (K-562 leukemia cells; K562, read-out: Percent Growth, log10 conc -5.0) was 3%. The activity at 0.001 µM (K-562 leukemia cells; K562, read-out: Percent Growth, log10 conc -9.0) was 0%, the activity at 0.0001 µM (K-562 leukemia cells; K562, read-out: Percent Growth, log10 conc -10.0) was 87% and the activity at 100 µM ([11]; DU-145, read-out: Percent Growth, log10 conc -4.0) was 22%. The activity at 10 µM ([11]; DU-145, read-out: Percent Growth, log10 conc -5.0) was 22%, the activity at 0.001 µM ([11]; DU-145, read-out: Percent Growth, log10 conc -9.0) was 55% and the activity at 0.0001 µM ([11]; DU-145, read-out: Percent Growth, log10 conc -10.0) was 94%. For the same compound, the “Percent Growth” value (RPMI-8226 leukemia cells) was 32%, the activity at 100 µM ([12]; IGROV-1, read-out: Percent Growth, log10 conc -4.0) was 5% and the activity at 10 µM ([12]; IGROV-1, read-out: Percent Growth, log10 conc -5.0) was -2%. For the same compound, the activity at 0.001 µM ([12]; IGROV-1, read-out: Percent Growth, log10 conc -9.0) was 50%, the activity at 0.0001 µM ([12]; IGROV-1, read-out: Percent Growth, log10 conc -10.0) was 110% and the “Percent Growth” value ([13]; log10 conc -6.0, 1 µM) was 37%. The “Percent Growth” value ([13]; log10 conc -7.0, 0.1 µM) was 42%, the activity at 100 µM ([14]; A549, read-out: Percent Growth, log10 conc -4.0) was 24% and the activity at 10 µM ([14]; A549, read-out: Percent Growth, log10 conc -5.0) was 27%. For the same compound, the activity at 1 µM ([14]; A549, read-out: Percent Growth, log10 conc -6.0) was 23%, the activity at 0.001 µM ([14]; A549, read-out: Percent Growth, log10 conc -9.0) was 91% and the activity at 0.0001 µM ([14]; A549, read-out: Percent Growth, log10 conc -10.0) was 105%. For the same compound, the activity at 100 µM ([15]; HCC 2998, read-out: Percent Growth, log10 conc -4.0) was 30%, the activity at 10 µM ([15]; HCC 2998, read-out: Percent Growth, log10 conc -5.0) was 30% and the activity at 0.1 µM ([15]; HCC 2998, read-out: Percent Growth, log10 conc -7.0) was 25%. For the same compound, the activity at 0.01 µM ([15]; HCC 2998, read-out: Percent Growth, log10 conc -8.0) was 97%, the activity at 0.001 µM ([15]; HCC 2998, read-out: Percent Growth, log10 conc -9.0) was 110% and the activity at 0.0001 µM ([15]; HCC 2998, read-out: Percent Growth, log10 conc -10.0) was 123%. It also gave an activity at 100 µM ([16]; OVCAR-4, read-out: Percent Growth, log10 conc -4.0) of 35%, an activity at 10 µM ([16]; OVCAR-4, read-out: Percent Growth, log10 conc -5.0) of 40% and an activity at 1 µM ([16]; OVCAR-4, read-out: Percent Growth, log10 conc -6.0) of 32%. The activity at 0.1 µM ([16]; OVCAR-4, read-out: Percent Growth, log10 conc -7.0) was 56%, the activity at 0.01 µM ([16]; OVCAR-4, read-out: Percent Growth, log10 conc -8.0) was 57% and the activity at 0.001 µM ([16]; OVCAR-4, read-out: Percent Growth, log10 conc -9.0) was 62%. The activity at 0.0001 µM ([16]; OVCAR-4, read-out: Percent Growth, log10 conc -10.0) was 92%, the “Percent Growth” value (SK-MEL-2 melanoma cells; log10 conc -6.0, 1 µM) was 28% and the “Percent Growth” value (SK-MEL-2 melanoma cells; log10 conc -7.0, 0.1 µM) was 20%. The “Percent Growth” value (SK-MEL-2 melanoma cells; log10 conc -8.0, 0.01 µM) was 29%, the “Percent Growth” value ([17]; log10 conc -6.0, 1 µM) was -33% and the “Percent Growth” value ([17]; log10 conc -7.0, 0.1 µM) was -41%. For the same compound, the activity at 100 µM (UO-31 renal cancer cells; UO-31, read-out: Percent Growth, log10 conc -4.0) was 29%, the activity at 10 µM (UO-31 renal cancer cells; UO-31, read-out: Percent Growth, log10 conc -5.0) was 26% and the activity at 1 µM (UO-31 renal cancer cells; UO-31, read-out: Percent Growth, log10 conc -6.0) was 42%. For the same compound, the activity at 0.1 µM (UO-31 renal cancer cells; UO-31, read-out: Percent Growth, log10 conc -7.0) was 52%, the activity at 0.001 µM (UO-31 renal cancer cells; UO-31, read-out: Percent Growth, log10 conc -9.0) was 90% and the activity at 0.0001 µM (UO-31 renal cancer cells; UO-31, read-out: Percent Growth, log10 conc -10.0) was 99%. The “Percent Growth” value (SN12C renal cancer cells) was 45%, the “Percent Growth” value (786-0 renal cancer cells; log10 conc -6.0, 1 µM) was 20% and the “Percent Growth” value (786-0 renal cancer cells; log10 conc -7.0, 0.1 µM) was 21%.
